From PMC9700832 (2022)

Molecular target: tectiviral gp7 homolog from the phage found in B. cereus HuB13-1 (tectiviral phage found in B. cereus …)
Assay: SPR

B1: B. thuringiensis serovar israelensis LexA (natural protein)
chain: MEKLTKRQQDILDFIKLKVQEKGYPPSVREIGQAVGLASSSTVHGHLSRLEEKGYIRRDPTKPRAIEILGEDRMDTETQSVIQVPIVGKVTAGLPITAVESVEEHFPLPASIVAGADQVFMLRISGDSMIEAGIFDGDLVVVRQQQSAYNGEIVVALTEDNEATVKRFYKEKDHFRLQPENSSLEPIILKQVSVIGKVIGVYRDLH
Kd: 274 nM
